Experimental data: ChEMBL document CHEMBL4888484, “Replenishing the malaria drug discovery pipeline: Screening and hit evaluation of the MMV Hit Generation Library 1 (HGL1) against asexual blood stage Plasmodium falciparum ,using a nano luciferase reporter read-out” (2022)
Out of some 150,000 compounds screened, about 540 (0.36%) showed an effect of 50% or more. Some of the results follow.

Tested on: Plasmodium falciparum
Assay: Primary screen in NF54 nanoGlo assay, in single point, at 2uM, 72h; a lower Z score goes with more inhibition
Type: functional, Erythrocyte
Details: timepoint 72 hour

SMILES	% Inhibition	Z score
Clc1cnc(NCCCO[C@H]2CCOC2)c(Cl)c1	-7%	1.14
CCCc1ncc(CN2CCC(Oc3cccc(F)c3)(C(=O)O)CC2)cn1	-2%	0.35
CCN(CC)[C@@H](CNC(=O)c1ccc2c(c1)NC(=O)CN2C)c1ccco1	3%	-0.35
C[C@@H]1Oc2ccc(NC(=O)c3cc(Cl)c4c(c3)OCCCO4)cc2NC1=O	-14%	1.92
CC1(C)CN(Cc2nncs2)c2cc(F)ccc21	-4%	0.34
O=C1c2cccnc2[C@@H](Nc2ccc(F)cc2Cl)N1c1ccccc1	-9%	1.11
C[C@H](NCCC(=O)N1CCOCC1)c1cc2cc(Cl)ccc2o1	5%	-0.49
CC(C)[C@@H](C)NC(=O)N1CCC(n2cc(CN3[C@H](C)CCC[C@@H]3C)nn2)CC1	-10%	1.35
O=C(C1CCOCC1)N1CC[C@@](F)(c2cccc(C(F)(F)F)c2)C1	-13%	1.66
CC(C)n1cc(NC(=O)[C@H](Cc2ccccc2)N(C)C)cn1	-16%	3.04
COc1cc(C)ccc1OCc1nc(C(=O)N2CCCCCCC2)co1	-20%	2.71
CN1CCCC[C@@H]1CNC(=O)c1ccc2nc(-c3ccc(F)cc3)cn2c1	-5%	0.91
O=C(c1cc(-c2ccccn2)nc2c(Cl)cccc12)N1CCN(C(=O)[C@@H]2CCCO2)CC1	-13%	1.65
CCc1cc(N2CCCN(S(C)(=O)=O)CC2)n2nccc2n1	-2%	0.32
CCc1nc(C)c(CNC(=O)c2ccc3nc(-c4ccccc4)cn3c2)s1	-21%	2.66
Cc1nc(-c2nc(-c3ncoc3C)n([C@H]3CCS(=O)(=O)C3)n2)cs1	-25%	2.27
Cc1nn(C)c(C)c1CNC(=O)c1nn(C)c2c1COCC2	-11%	1.44
Cc1cccc(O[C@@H](C)c2nnc(-c3ccc4c(c3)nnn4C)o2)c1C	8%	-1.08
O=C(Nc1ccc(C(=O)c2ccccc2)cc1NC(=O)c1ccc(Cl)cc1)c1ccc(Cl)cc1	-6%	0.77
CCC(C(=O)NCC(C)c1ccccc1)n1c2ccccc2c2cnn(C)c(=O)c21 (stereo unspecified)	-7%	1.27
CC(C)(C)OC(=O)N1CCC(CO)CC1	-1%	0.22
Cc1nnc2sc(-c3ccc(CNC(=O)c4ccc(Br)cc4)cc3)nn12	0%	-0.01
Cc1ccc(Cl)c(NS(=O)(=O)c2cc(-c3[nH]ncc3C(=O)N(C)C)oc2C)c1	-13%	2.06
COc1cnc(N(C)C[C@H]2CCCOC2)c(Br)c1	-1%	0.15
CCN(C1CCCCC1)S(C)(=O)=O	-9%	0.98
O=C(CN1CCN(c2ccc3c(c2)OCCO3)C1=O)N1CCN(C(=O)[C@@H]2CCCO2)CC1	3%	-0.53
CC(C(=O)N(C)C)S(=O)(=O)C(C)c1cccc(Br)c1 (stereo unspecified)	-1%	0.16

SMILES	% Inhibition	Z score
COCCNS(=O)(=O)c1cnc(N(C)CCOC)c(Cl)c1	4%	-0.43
Cc1c(Cl)cccc1NC(=O)CN1C(=O)CCn2nc(-c3cn(C)c4ccccc34)cc21	4%	-0.66
COCCNS(=O)(=O)c1c[nH]c(C(=O)OC2CCCCCCC2)c1	-7%	1.06
CC(C)CC(=O)Nc1ccc(N2CCCN(C(=O)c3ccccc3F)CC2)c(C(=O)NCc2ccc(F)cc2)c1	-3%	0.49
Cc1cc(C)n([C@H]2CC(=O)[C@@H]3OCC2O3)n1	34%	-3.81
O=C(NCc1ccnc(-c2ccncc2)c1)c1ccncc1	2%	-0.25
Cc1cc(CS(=O)(=O)NC2(c3ccc(Br)cc3)CC2)on1	-5%	0.89
CC(C)c1nc(CCN2Cc3ncccc3C2=O)no1	-5%	0.49
Cc1cccc(-c2ncccc2CNC(=O)CC2CCCC2)c1	2%	-0.26
COCc1ncc(-c2noc(C3CC3C)n2)c(N)n1 (stereo unspecified)	-16%	2.53
CS(=O)(=O)N(CCCN1CCOCC1)[C@H]1CCN(C(=O)Nc2ccccc2F)C1	-7%	0.88
COC(=O)[C@H]1CCc2nnc(C(=O)NCc3ccc(Cl)cc3)n2C1	-12%	1.98
CC1CCC(N(C)CC(=O)NC2CCCC2)CC1 (stereo unspecified)	-6%	0.77
Cc1nn(-c2ccccc2)c2sc(C(=O)N3CCC3)cc12	27%	-3.02
Cc1nc(CN2C(=O)COc3cc(S(=O)(=O)N4CCCC4)c(Cl)cc32)no1	-14%	1.65
Cc1cnc(CN2C[C@]3(CCCN(C(=O)c4ccn(C)n4)C3)CCC2=O)cn1	-5%	0.75
O=C(N[C@@]12COC[C@@H]1C2)c1cc2nccc(C(F)(F)F)n2n1	-11%	2.02
O=C(O)CC1(NCc2cc(Br)cc3cccnc23)CCOCC1	0%	0.06
Nc1c(C(=O)Nc2ccc3c(c2)OCCO3)sc2ncccc12	1%	-0.11
CCc1nc(-c2ccccc2)nc(N2CCN(C(C)=O)CC2)c1Cc1ccc(F)cc1	-12%	1.44
O=C(Cn1cnc2c(-c3ccc(F)cc3)nsc2c1=O)N1CCN(c2ccccc2F)CC1	-9%	1.39
CC(C)CCNC(=O)N1CCC(Oc2nc(C(C)C)nc3c2CCOCC3)CC1	-10%	1.58
Cn1c(C(=O)Nc2ccc(F)c(Cl)c2)cc2occc21	-2%	0.37
CCCCn1ccc(=O)c(OCc2ccccc2)c1C	-9%	1.68
Cc1ccc2[nH]nc(CNC(=O)[C@H]3CCOC3)c2c1	-16%	1.51
NC(=O)c1c(NC(=O)c2cc(-c3ccccc3Cl)nc3ccccc23)sc2c1CCCCC2	7%	-0.79
